From ChEMBL document CHEMBL1201862, “PubChem BioAssay data set” (2004)

What follows are compounds tested on NCI-H322M (assay: DTP human tumour cell line panel, 48 h).
For `COc1ccc(-c2coc3c4c(ccc3c2=O)OCO4)cc1OC`, the GI50 was inactive: > 100 µM.
In the case of `O=c1oc2c3ccc4ccccc4c3n(Cc3nc4ccccc4[nH]3)c2c2ccccc12`, the GI50 is reported as inactive: 11.8 µM.
For `COC(=O)NC1C(C)OC(OC2C/C=C(/C)C3C=CC4C(OC5CC(OC6CC(O)C(OC7CC(O)C(OC)C(C)O7)C(C)O6)C(O)C(C)O5)C(C)CC(C)C4C3(C)C(=O)C3=C(O)C4(CC(C)C(CO)=CC4/C=C\2C)OC3=O)CC1(C)[N+](=O)[O-]` (stereo not given), the GI50 was inactive: 7.48 µM.
For `O=C1/C(=C/c2ccco2)N=C2Sc3c([nH]cnc3=O)N12`, the GI50 was inactive: > 100 µM.
`CCN(CC)c1ccc(/N=C2\C=C(Cl)C(=O)c3ncccc32)c(C)c1` was tested, and the GI50 was inactive: 20.1 µM.
With `N/N=c1/nc2n(c3ncccc13)C=CNN2` the GI50 was inactive: > 100 µM.
With `O=C1c2cccc3cccc(c23)C(=O)N1CCCN1CCN(CCCN2C(=O)c3cccc4cccc(c34)C2=O)CC1` the GI50 was inactive: > 100 µM.
In the case of `S=C1NCCN1C(=S)Nc1ccccc1`, the GI50 is reported as inactive: > 100 µM.
With `CC(C)(C)n1[nH]c(=O)n(C(C)(C)C)c1=O` the GI50 was inactive: > 100 µM.
In the case of `Cc1cc(NS(=O)(=O)c2ccc(Nc3c4ccccc4nc4ccc(C(=O)Nc5ccc(S(=O)(=O)N=C(N)N)cc5)cc34)cc2)no1`, the GI50 is reported as inactive: > 100 µM.
`CC(C)(C)c1ccc2c(c1)OP1(Oc3cccc4cccnc34)(O2)Oc2ccc(C(C)(C)C)cc2O1` was tested, and the GI50 was inactive: 5.43 µM.
In the case of `O=c1oc2ccccc2cc1/C=N/N1C(=S)N(c2ccccc2)C(=N\c2ccccc2)/C1=N/c1ccccc1`, the GI50 is reported as inactive: > 100 µM.
`O=C(Nc1ccc(Cl)c(C(F)(F)F)c1)C(=O)c1c(O)c2ccccc2oc1=O` was tested, and the GI50 was inactive: > 100 µM.
With `CCOC(=O)C1C(C(C)C)C2(C#N)C(=N)OC1(C)C2(C#N)C#N` (stereo not given) the GI50 was inactive: > 100 µM.
In the case of `CC(=O)NC1C(OCc2ccccc2)OC(CO)C(O)C1OCC(=O)NC(C)C(=O)NC(CCC(=O)NCCCCCC(=O)Nc1ccc2c(c1)CN1C(=O)c3ccccc3C1=N2)C(N)=O` (stereo not given), the GI50 is reported as inactive: 25.2 µM.
In the case of `NC(=O)C(Nc1ccc(Cl)cc1)c1cc2cc(Br)ccc2nc1Cl` (stereo not given), the GI50 is reported as inactive: > 50 µM.
In the case of `O=c1cnn(C2OC(C(O)CO)C(O)C2O)c(=O)[nH]1` (stereo not given), the GI50 is reported as inactive: > 100 µM.
With `NC(=O)C(=O)N/N=C1\C(=O)N(c2ccc(Cl)cc2Cl)C(=O)C1C(=O)Nc1ccc(Cl)cc1Cl` (stereo not given) the GI50 was inactive: > 100 µM.
For `CCCCSc1nsc(N(C(=O)c2ccccc2)C(=O)c2ccccc2)n1`, the GI50 was inactive: 35.6 µM.
For `COc1cc([N+](=O)[O-])cc2c1NC(=O)C2(C)SC` (stereo not given), the GI50 was inactive: > 100 µM.
`CC(C(=O)n1c2ccccc2c2ccccc21)N(c1ccccc1)c1ccccc1` (stereo not given) was tested, and the GI50 was inactive: 17.3 µM.
In the case of `C=CCn1cc(C(=O)NC(=O)NCCCCCOC(=O)CCCCCCCCCCC(=O)OCCCCCNC(=O)NC(=O)c2cn(CC=C)c(=O)n(C)c2=O)c(=O)n(C)c1=O`, the GI50 is reported as inactive: > 100 µM.
In the case of `COc1cc(OC)c(OC)cc1/C=C/c1cc[n+](C)c2ccccc12`, the GI50 is reported as inactive: 21.9 µM.
In the case of `COc1ccc(/C=N/n2c(Cc3ccc(Cl)cc3)n[nH]c2=O)cc1`, the GI50 is reported as inactive: 28.4 µM.
For `N#CCCN(c1ccc(/C=N/c2ccccc2Cl)cc1)S(=O)(=O)c1ccccc1`, the GI50 was inactive: > 100 µM.
`Cc1cc2nc(-c3c(F)cccc3F)n(Cc3c(F)cccc3F)c2cc1C` was tested, and the GI50 was inactive: 21.7 µM.
With `CN(C)C(=S)SN(C)C(=O)Nc1ccccc1` the GI50 was inactive: 42.8 µM.
In the case of `COc1cccc(C(=O)N2CCc3ccccc32)c1OC`, the GI50 is reported as inactive: 90.2 µM.
`COC(=O)c1c(C(=O)OC)c2c3ccccc3n(C)c2c2c1c1ccccc1n2C` was tested, and the GI50 was inactive: > 100 µM.
In the case of `NCCCCNOCCCN`, the GI50 is reported as inactive: > 100 µM.
`CC(=O)O[C@H]1CC[C@@]2(C)C(=CC[C@@H]3[C@@H]2CC[C@]2(C)Nc4c(cnn4S(C)(=O)=O)C[C@@H]32)C1` was tested, and the GI50 was inactive: > 100 µM.
In the case of `Cc1c2ccccc2c(=O)n2c(-c3ccccn3)cccc12`, the GI50 is reported as inactive: 31.8 µM.
With `COc1cc(OC(=O)c2ccccc2)cc2c1C(=O)C=CC2=O` the GI50 was inactive: 20.3 µM.
`Fc1cccc(F)c1C1SCc2nc3ccc(Cl)cc3n21` (stereo not given) was tested, and the GI50 was inactive: > 100 µM.
With `COc1ccc(Nc2[nH]c(C(C)=O)c(N)c2C(=S)Nc2ccccc2)cc1` the GI50 was inactive: 65.3 µM.
For `CC(=O)NC1C(OCc2ccccc2)OC(COC(=O)CCCCCCCCCCNc2ccc([N+](=O)[O-])c3[nH]c4ccccc4c(=O)c23)C(O)C1OC(C)C(=O)NC(C)C(=O)NC(CCC(N)=O)C(=O)OCc1ccccc1` (stereo not given), the GI50 was inactive: > 100 µM.
`Cc1ccc(Nc2sc(C)cc2C#N)c([N+](=O)[O-])c1` was tested, and the GI50 was inactive: > 100 µM.
With `c1ccc([B-]23Oc4ccccc4[NH+]2c2ccccc2O3)cc1` (stereo not given) the GI50 was inactive: > 100 µM.
With `CC1C(=O)O[C@H]2C1CC[C@@]1(C)[C@H](O)CC[C@@]13C[C@]2(O)OO3` (stereo not given in full) the GI50 was inactive: > 100 µM.
For `CC(=O)OC1CC2C(C)(C)OC(=O)CC(OC(C)=O)[C@]2(C)C2CCC3(C)C(=CCC3c3ccoc3)[C@]12C` (stereo not given in full), the GI50 was inactive: 29 µM.
`CC1C[C@@]2(c3ccccc3)C(=O)CCC[C@H]2N1` (stereo not given in full) was tested, and the GI50 was inactive: > 100 µM.
For `COc1cccc2c1C(=O)c1c(O)c3c(c(O)c1C2=O)C[C@@](O)(C(=O)CO)CC3OC1CC(N(C)CCOCC(OC(C)=O)OC(C)=O)C(O)C(C)O1` (stereo not given in full), the GI50 was active: > 0.01 µM.
`CNC(=O)OCc1nc([S+](C)[O-])n(C)c1COC(=O)NC` (stereo not given) was tested, and the GI50 was inactive: > 100 µM.
`C[N+](C)(C)CC1CCC(C[N+](C)(C)C)C1=O` (stereo not given) was tested, and the GI50 was inactive: 16.7 µM.
In the case of `CC(N)Cc1ccc(Cl)cc1` (stereo not given), the GI50 is reported as inactive: > 100 µM.

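Five concentrations, 48 hours, 96-well plates. GI50 = concentration required for 50% inhibition of growth.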 Active and inactive are the calls of the source. No stated cut-off is given here; in the data, active = GI50 up to about 1.1 µM and inactive = higher.
